Test results: article PMC10104498 (Proceedings of the National Academy of Sciences of the …, 2023)

B1: GST-CHKα (enzyme, human)
chain: MKTKFCTGGEAEPSPLGLLLSCGSGSAAPAPGVGQQRDAASDLESKQLG[about 400 residues left out]
B2: bacterially purified ENO1 (enzyme)
chain: not shown

Assays:
His-TRIM25 = His-TRIM25 (human, UniProt Q14258); assay: pull-down
GST-CHKα = molecular target: B1; assay: pull-down

Row | Binder | binding result (His-TRIM25) | binding result (GST-CHKα)
1 | B1 | binds | 
2 | B2 |  | binds
